Measured values reported in publication PMC4336329 (PLoS ONE, 2015).
Out of some 310,000 compounds screened, about 14,000 (4.5%) showed an effect of 50% or more. The effect is printed as a negative number. This is one part of the list.

Target: human ether-à-go-go-related gene (hERG) potassium channel (human, UniProt Q12809)
Experiment: primary screen, population patch clamp on CHO cells stably expressing hERG
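Note: peak tail current of the secondary pulse compared with the same well before compound.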

Chain of human ether-à-go-go-related gene (hERG) potassium channel (Q12809 whole entry, looked up): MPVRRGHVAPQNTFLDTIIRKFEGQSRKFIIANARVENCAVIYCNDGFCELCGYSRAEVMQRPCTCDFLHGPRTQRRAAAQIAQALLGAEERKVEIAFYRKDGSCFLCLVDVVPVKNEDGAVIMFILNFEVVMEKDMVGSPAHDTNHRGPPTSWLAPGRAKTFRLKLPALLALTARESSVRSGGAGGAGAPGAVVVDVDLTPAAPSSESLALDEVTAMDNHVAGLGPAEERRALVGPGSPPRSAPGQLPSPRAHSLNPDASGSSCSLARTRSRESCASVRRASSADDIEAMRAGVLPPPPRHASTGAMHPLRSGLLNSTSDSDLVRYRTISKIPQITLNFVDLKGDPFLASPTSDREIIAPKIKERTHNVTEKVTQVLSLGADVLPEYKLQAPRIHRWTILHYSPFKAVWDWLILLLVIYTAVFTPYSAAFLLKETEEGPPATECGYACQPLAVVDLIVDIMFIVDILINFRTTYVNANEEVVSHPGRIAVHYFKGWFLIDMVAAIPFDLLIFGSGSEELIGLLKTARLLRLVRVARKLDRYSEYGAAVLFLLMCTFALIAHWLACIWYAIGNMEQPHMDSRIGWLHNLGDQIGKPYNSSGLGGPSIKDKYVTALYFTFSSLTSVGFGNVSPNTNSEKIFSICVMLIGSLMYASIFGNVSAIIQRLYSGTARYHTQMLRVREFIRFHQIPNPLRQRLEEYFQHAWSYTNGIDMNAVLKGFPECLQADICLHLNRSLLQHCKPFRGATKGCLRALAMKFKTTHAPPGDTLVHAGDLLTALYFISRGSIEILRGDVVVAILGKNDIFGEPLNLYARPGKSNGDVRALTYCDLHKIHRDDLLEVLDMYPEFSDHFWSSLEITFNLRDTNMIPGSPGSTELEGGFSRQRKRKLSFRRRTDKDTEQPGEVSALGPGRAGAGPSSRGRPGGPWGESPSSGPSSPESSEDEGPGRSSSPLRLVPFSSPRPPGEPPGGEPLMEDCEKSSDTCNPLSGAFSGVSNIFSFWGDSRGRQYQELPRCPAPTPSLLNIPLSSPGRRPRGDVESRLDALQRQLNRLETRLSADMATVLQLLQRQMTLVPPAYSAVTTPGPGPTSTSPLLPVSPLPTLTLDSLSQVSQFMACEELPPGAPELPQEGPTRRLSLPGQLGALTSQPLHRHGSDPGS

| Structure (SMILES) | hERG current change (%, negative = inhibition) at 10uM [%] |
| --- | --- |
| COC(=O)CC1C(=O)NCCN1C(=O)c1c(F)cccc1F (stereo not drawn) | 14.5 |
| COc1cc(NC(=O)CCCN2C(=O)NC(C)(C)C2=O)cc(OC)c1 | 12.2 |
| O=C(CCn1nc(-c2ccccc2)ccc1=O)N1CCOCC1 | -32 |
| CN1CCN(C(=O)N2CCNC2=O)CC1.Cl | 3.85 |
| Cc1ccc(-c2nnc(Nc3ccc(C(N)=O)cc3)c3ccccc23)cc1S(=O)(=O)NCC1CCCO1 (stereo not drawn) | 4.4 |
| O=C(O)c1ccccc1NC(=S)NC(NC(=O)c1ccccc1[N+](=O)[O-])C(Cl)(Cl)Cl (stereo not drawn) | 7.96 |
| COc1cc(OC)cc(C(=O)Nc2nnc(SCC(=O)NCC3CCCO3)s2)c1 (stereo not drawn) | 14.3 |
| O=C1Nc2c(c(=O)[nH]c(=O)n2Cc2ccccc2)C1(NS(=O)(=O)c1ccccc1)C(F)(F)F (stereo not drawn) | 15.3 |
| Cc1cccc(-n2c(C)cc(/C=N/NC(=O)c3ccc(CN4CCOCC4)cc3)c2C)c1 | -29.3 |
| Cc1ccc2nc(NC(=O)CSc3nncc(=O)n3N)sc2c1 | -9.17 |
| COc1cc2cc(C(=O)N3CCN(c4ccccc4OC)CC3)[nH]c2cc1OC | 24.5 |
| CCCC(NC(=O)c1ccco1)c1nc2ccccc2[nH]1 (stereo not drawn) | -6.95 |
| CC1CN(C(=O)CCC(=O)NC(C)c2ccccc2)c2cc(Cl)ccc2O1 (stereo not drawn) | -35 |
| CCOc1ccc(-n2c(SCC(=O)N3CCc4ccccc43)nnc2-c2c[nH]c3ccccc23)cc1 | 22.8 |
| Cn1c(N)c(N2CCCCC2)c(=O)n(CC(=O)Nc2ccc(Cl)c(Cl)c2)c1=O | -7.67 |
| COc1ccc(N2CCN(C(=O)C3CCCO3)CC2)cc1 (stereo not drawn) | 7.55 |
| CCCN1CNc2c(c(=O)[nH]c(=S)n2-c2ccccc2Cl)C1 | 11.4 |
| N#Cc1c(C#N)c(-c2ccccc2)n(-c2ccccc2)c1N | -0.71 |
| CCOC(=O)c1sc(NC(=O)CSc2nc(C)cc(-c3ccccc3)n2)c(C#N)c1C | 18.3 |
| COc1cc(C(C)=O)ccc1OCC(O)Cn1nc(C)c(C(C)=O)c1C (stereo not drawn) | -1.6 |
| COc1cc(C(=O)OCC(=O)NC2CCS(=O)(=O)C2)ccc1OCc1c(C)noc1C (stereo not drawn) | 6.91 |
| Cc1cccc(C2(c3cccc(C)c3)CC2C(=O)NCC2CCCO2)c1 (stereo not drawn) | -6.94 |

| Structure (SMILES) | hERG current change (%, negative = inhibition) at 10uM [%] |
| --- | --- |
| Cc1cc2cc(CNC(=S)Nc3ccc(OC(F)(F)F)cc3)ccc2[nH]1 | 16.3 |
| CCOc1ccccc1C(=O)Nc1cccc2ccccc12 | 17.8 |
| Cc1ccc(NC(=O)c2c(C)nc3sc(C(=O)NC4CCCC4)c(N)c3c2-c2ccco2)c(C)c1 | -0.174 |
| COc1ccc(S(=O)(=O)NCCNC(=O)N2CCOCC2)cc1 | -13.7 |
| COc1ccc(N2C(=O)CSC2c2ccncc2)cc1 (stereo not drawn) | 13.1 |
| O=C(NC1=NC2CCCCC2N1)c1ccccc1 (stereo not drawn) | 19.2 |
| Cc1cccc(NC(=O)C2CCCN(c3cnccn3)C2)c1 (stereo not drawn) | -5.03 |
| O=P(O)(O)COc1ccccc1P(=O)(c1ccccc1)c1ccccc1 | 5.84 |
| CN(C)S(=O)(=O)c1cccc(-c2nnc3n2CCCCC3)c1 | 0.501 |
| COc1cccc(Cn2c(-c3nonc3N)nc3ccccc32)c1 | -11.7 |
| O=C1CN(C(=O)COc2ccc(Br)cc2Br)c2ccccc2N1 | 6.68 |
| Cc1ccc(CNCc2ccc3c(c2)OCO3)cc1 | -0.503 |
| CC1(C)NC(=O)N(CC(O)CN(Cc2ccccc2)Cc2ccccc2)C1=O (stereo not drawn) | -1.49 |
| Cc1nn(CC#N)c(=O)n1-c1ccc(C(C)C)cc1 | 5.18 |
| Cc1ccc(C)c(NC(=S)N2CCN(Cc3ccccc3)CC2)c1 | 11.2 |
| O=C(O)C1=C[C@@H](c2csc3ccccc23)C[C@@H](OCCCCO)O1 | 3.14 |
| NC(=O)C1=C[C@@H](c2csc3ccccc23)C[C@@H](OCc2ccc(CO)cc2)O1 | -19.1 |
| C=CCSc1nc2sc3c(c2c(=O)[nH]1)CCC3 | 2.84 |
| Cc1ccccc1C(=O)Nc1ccc2c(c1)CCCN2C(=O)c1cccs1 | -9.52 |
| Cc1ccn2c(=O)nc(SCC(=O)N3CCCCCC3)nc2c1 | 11.8 |
| O=C(/C=C/c1ccccc1[N+](=O)[O-])N1CCc2ccccc2C1 | -38.7 |
| O=C(NC1CCCCCCC1)C1c2ccccc2C(=O)N1Cc1ccco1 (stereo not drawn) | -14.4 |

| Structure (SMILES) | hERG current change (%, negative = inhibition) at 10uM [%] |
| --- | --- |
| COCCNC(=S)N(CCO)Cc1cc2cc3c(cc2[nH]c1=O)OCO3 | 19.8 |
| O=C(NNC(=S)NCc1ccccc1)c1ccc(Br)o1 | 18.5 |
| CCn1c(-c2cccnc2Cl)nc2cc(C)c(C)cc21 | 14.5 |
| CCOC(=O)Cc1csc(NC(=O)c2ccc(Br)cc2)n1 | 13.4 |
| CC(=O)NCCc1nc2ccccc2n1CCOc1ccccc1 | 1.52 |
| Cn1nc(-c2ccc(N3CCOCC3)c(NS(=O)(=O)c3ccccc3)c2)c2ccccc2c1=O | -15.6 |
| CC1CCCCN1C(=O)NC12CC3CC(CC(C3)C1)C2 (stereo not drawn) | -7.43 |
| O=C(CSc1nnc(CNc2ccc(Cl)cc2)o1)Nc1nc2c(s1)CCCC2 | -6.9 |
| CCN(CC)CCCN=Cc1c(O)n(-c2cccc(C)c2)c(=O)c2ccccc12 | -42.8 |
| COc1c(C)cc(C(=O)C2CCCN(Cc3cccc4nccnc34)C2)cc1C (stereo not drawn) | -64.5 |
| COc1ccc(O)c(C(=O)c2cnn(C(=O)c3cc(C)oc3C)c2)c1 | 13 |
| Cc1ccc(S(=O)(=O)NNc2ccccc2)c(C)c1 | -0.462 |
| Cc1ccc(OCC(=O)N(C)CC(=O)Nc2ccc(Cl)c(C(F)(F)F)c2)c([N+](=O)[O-])n1 | -54.8 |
| Cc1cc(NC(=O)CSc2nc(C(C)(C)C)nc3ccccc23)no1 | 18.8 |
| CCCn1nc(NC(=O)c2ccco2)c2cc3cc(C)ccc3nc21 | 1.55 |
| O=c1cc[nH]c2cccc(Cc3ccccc3)c12 | -3.29 |
| Cc1noc(C)c1S(=O)(=O)N1CCC(Cc2ccccc2)CC1 | 0.232 |
| COC(=O)c1ccc(NC(=O)c2cccc(Cl)c2)o1 | -11.8 |
| COc1cc(OC)c(NC(=O)CNC(=O)Cn2ccc3ccccc3c2=O)cc1Cl | 23.4 |
| COC(=O)C1=C(c2c(C)noc2C)C[C@@H]2CC[C@H]1N2C(=O)N1CCC(O)CC1 | 16.6 |
| Cc1cc(C)c(C)c(OCCN2CC(C)OC(C)C2)c1.O=C(O)C(=O)O (stereo not drawn) | 6.21 |
| CCOC(=O)C1CCN(c2c(N3CCCC(C(=O)OCC)C3)c(=O)c2=O)CC1 (stereo not drawn) | -22.8 |

| Structure (SMILES) | hERG current change (%, negative = inhibition) at 10uM [%] |
| --- | --- |
| COc1ccccc1N1CCN(CC(O)COc2ccc3c(c2)OCO3)CC1.Cl (stereo not drawn) | -33.7 |
| COc1cc(-c2[nH]ncc2CN2CCCC2c2nonc2C)cc(OC)c1OC (stereo not drawn) | -17.6 |
| CC(=O)Nc1ccc(NC(=O)CN2C(=O)COc3ccc(S(=O)(=O)N4CCOCC4)cc32)cc1 | 21.1 |
| COCCNCC(=O)Nc1ccc(C)c(S(=O)(=O)N2CCCCC2)c1.O=C(O)C(=O)O | -11.5 |
| c1ccc(CCn2c(SCc3ccccc3)nnc2-c2ccncc2)cc1 | -41.4 |
| Cc1cc(=O)oc2cc(OCC(=O)Nc3ccc(S(=O)(=O)N(C)C)cc3)ccc12 | -1.43 |
| CC(C)CCn1nnnc1C(c1ccc(F)cc1)N1CCC(C(N)=O)CC1 (stereo not drawn) | -21.4 |
| CCOc1ccccc1N1CC(C(=O)Nc2cc(S(C)(=O)=O)ccc2Cl)CC1=O (stereo not drawn) | 0.00348 |
| C1=C(c2ccccc2)Nc2ncnn2C1c1ccccc1 (stereo not drawn) | -5.26 |
| CCN1CCCC(OC(=O)C(c2ccccc2)c2ccccc2)C1.Cl (stereo not drawn) | -66.1 |
| COCCNC(=O)C1c2ccccc2C(=O)N(CCOC)C1c1ccc(F)cc1 (stereo not drawn) | 15 |
| COc1ccc(C)cc1NC(=O)CN1CCN(S(=O)(=O)c2ccc(Cl)cc2)CC1 | -23.8 |
| COc1ccc(Nc2nc(NCCO)nc(N3CCCC3)n2)cc1 | -38.3 |
| Cl.OCCN(CCO)CC(O)Cn1c2ccccc2c2ccccc21 (stereo not drawn) | -16.1 |
| CCOc1ccc(CCNC(=O)c2cccc(NC3=NC4CS(=O)(=O)CC4S3)c2)cc1OCC (stereo not drawn) | 8.09 |
| COc1ccc(N2C(=O)CS/C2=N\C(=S)Nc2ccccc2)cc1 | 8.31 |
| CN(C(=O)COC(=O)C12CC3CC(CC(Cl)(C3)C1)C2)C1(C#N)CCCCC1 | -53.5 |
| N#C/C(=C1/CCCCCN1)c1nc2ccccc2s1 | 4.18 |
| CC1(C)CC(=O)C(C(c2cccc([N+](=O)[O-])c2)C2C(=O)CC(C)(C)CC2=O)C(=O)C1 | -1.2 |
| O=C(NCC(=O)N1CCN(C(=O)c2ccco2)CC1)c1ccc(Cl)cc1 | -34.1 |
| Cc1cc(C(=O)N/N=C/C=C/c2ccccc2)n[nH]1 | 2.85 |
